Data published in PubChem BioAssay AID488969 (Vanderbilt High Throughput Screening Facility, 2010).
Whole data set: some 110,000 compounds, median “z-score” near -0.1, cut for the highest 2% near 2. The list shows a part of the results. Calls of active or inactive are those of the source.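 How the source made its calls: active means z-score in the third read window above 3 or below -3; inactive means the rest.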

molecular target: Metabotropic glutamate receptor 8 (Rattus norvegicus) (UniProt P70579); assay: mGluR8 Gi/Go-coupled signaling modulation – cell-based, rat, thallium flux, HTS, primary screen (AID 488969); settings: HEK293 rat mGluR8, GIRK (G protein-gated inwardly rectifying potassium channel) thallium flux, FluoZin2; at 10 µM; stronger effect = higher value; submaximal glutamate (EC20) added with thallium
Sequence of UniProt P70579 (P70579 whole entry, looked up): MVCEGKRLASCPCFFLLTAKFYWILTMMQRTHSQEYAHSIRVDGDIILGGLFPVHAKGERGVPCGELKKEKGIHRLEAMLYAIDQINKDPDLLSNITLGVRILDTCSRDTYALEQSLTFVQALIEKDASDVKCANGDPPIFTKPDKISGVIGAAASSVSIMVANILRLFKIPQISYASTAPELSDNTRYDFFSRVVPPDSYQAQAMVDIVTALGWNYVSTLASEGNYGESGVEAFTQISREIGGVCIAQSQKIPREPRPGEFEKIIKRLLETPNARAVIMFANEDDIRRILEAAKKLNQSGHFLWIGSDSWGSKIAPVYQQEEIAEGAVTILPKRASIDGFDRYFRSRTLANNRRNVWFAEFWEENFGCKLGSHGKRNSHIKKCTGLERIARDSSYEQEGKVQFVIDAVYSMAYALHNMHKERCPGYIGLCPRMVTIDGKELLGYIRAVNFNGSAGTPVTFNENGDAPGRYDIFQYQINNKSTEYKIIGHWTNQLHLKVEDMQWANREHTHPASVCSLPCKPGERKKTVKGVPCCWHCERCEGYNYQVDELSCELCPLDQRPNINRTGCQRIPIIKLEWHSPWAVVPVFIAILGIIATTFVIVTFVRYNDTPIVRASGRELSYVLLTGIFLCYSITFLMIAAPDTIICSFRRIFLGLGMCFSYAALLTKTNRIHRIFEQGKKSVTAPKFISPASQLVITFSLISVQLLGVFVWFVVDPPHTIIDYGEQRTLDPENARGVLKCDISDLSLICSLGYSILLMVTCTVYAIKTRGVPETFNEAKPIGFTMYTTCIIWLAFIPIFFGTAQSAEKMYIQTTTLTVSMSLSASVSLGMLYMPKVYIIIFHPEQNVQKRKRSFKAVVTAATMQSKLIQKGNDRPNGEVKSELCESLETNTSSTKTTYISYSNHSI

SMILES	z-score
Cc1ccc2c(Cl)cc(Cl)c(OCC(=O)Nc3cc(S(=O)(=O)N(C)C)ccc3C)c2n1	-0.0675
Cc1ccc(C(=O)C(OC(=O)CN2C(=O)c3ccccc3C2=O)c2ccccc2)cc1 (centres undefined)	-0.46
CC(C)NC(=O)c1ccc(OC2CSC2)cc1	0.0666
CC(C)(C)C1CCc2[nH]nc(C(=O)O)c2C1 (centres undefined)	active: -3.76
CCn1c(SCc2nc3ccccc3c(=O)[nH]2)nnc1-c1ccncc1	-0.193
Cc1ccccc1-c1nnc(Cc2ccccc2)o1	-0.211
Nc1c2c(nc3ccc(Br)cc13)N(c1ccccc1)CC2	-1.03
CC1CCCCN1C(=O)/C(=C\c1ccccc1)c1ccccc1 (centres undefined)	-0.424
CC(=O)Nc1ccc(OC(=O)c2cc3cc(Br)cc(Br)c3oc2=O)cc1	-0.128
O=C1OC(c2ccccc2)c2ccc3ccccc3c21 (centres undefined)	-0.00828
O=C(c1ccc(-c2ccccc2)cc1)N1CCC(C(=O)N2CCCC2)CC1	-0.187
Cc1ccc(S(=O)(=O)N(Cc2ccc(Cl)cc2)c2ccccc2C(=O)NCc2cccnc2)cc1	0.0489
CC1=CC(c2ccccc2)NC(=S)N1 (centres undefined)	-0.113
Cc1nnc(NCCN2CCOCC2)[nH]c1=O	-0.109
COc1ccc(-c2nc3oc4cc(OC)ccc4c(=O)c3c(=O)n2Cc2ccco2)cc1	0.296
CC(C)[C@H](Nc1nc(-c2ccccc2)nc2c1oc1ccccc12)C(=O)O	-0.596
CC(CCc1ccccc1)NC(=O)CSc1nc(N)cc(N)n1 (centres undefined)	-0.00376
Cn1nc(C(F)(F)F)c2cc(NC(=O)OCC(C)(C)C)sc21	-1.03
Brc1ccc(Nc2nc3ccccc3n3nnnc23)cc1	-0.0764
COC(=O)C1=C(C)N(C)C(=S)NC1c1ccc(Cl)cc1 (centres undefined)	-1.56
O=C(COC(=O)c1ccncc1)Nc1cccc(Cl)c1	-0.157
COC(=O)/C(=N\Nc1ccccc1)Sc1nnc(-c2ccc(OC)cc2)n1C	-0.153
CCn1c(SCC(=O)NC(=O)NCc2ccco2)nnc1-c1cccs1	-0.133

SMILES	z-score
Cc1ccsc1C(=O)N/N=C/c1ccc2c(c1)OCO2	-0.388
COc1ccc(NC2C=CS(=O)(=O)C2)cc1 (centres undefined)	-0.312
CCNS(=O)(=O)c1ccc(Br)c(OC)c1	0.22
CCCCc1c(O)nc(N2CCN(Cc3ccccc3)CC2)[nH]c1=O	-0.0966
C=CCn1cc(C(=O)NCc2cccnc2)c(=O)c2cc(S(=O)(=O)N(CC)CC)ccc21	-0.0891
C=CCNC(=O)c1cc(Cl)ccc1Cl	0.018
CCC(C)C(NC(=O)c1ccccc1NC(=O)c1ccccc1)C(=O)N1CCOCC1 (centres undefined)	-0.0703
CC(C)CCC1CC(CSC(=N)N)OC1=O (centres undefined)	-0.229
CNC(=S)Nc1ccc2nc(C)c(C)nc2c1	-0.0637
Cc1ccc(-n2ncc3c(N4CCN(c5ccc(F)cc5)CC4)ncnc32)c(C)c1	-0.0734
CCOC(=O)/C=C/C(=O)Nc1nccs1	-0.174
Cc1ccc(OCC(=O)NNc2c3ccccc3nc3ccccc23)cc1	0.233
CCOC(=O)c1c(NC(=O)Cc2cccs2)sc(C(=O)N2CCCCC2)c1C	-0.214
CC1CN(C(=O)C2CCCN2S(=O)(=O)c2ccc(Cl)cc2)CC(C)O1 (centres undefined)	0.21
O=C(O)CC1NC(=S)N(c2ccccc2)C1=O (centres undefined)	0.429
O=C(Nc1nsc(-c2ccccc2)n1)c1ccncc1	-0.163
O=C(CCS(=O)(=O)c1ccc(Br)cc1)N1CCN(c2ccccc2Cl)CC1	0.163
CN(Cc1n[nH]c(=S)n1C)S(=O)(=O)c1ccccc1	0.0105
C=CCN1C(=O)CSc2ccc(C(=O)N3CCC(C)CC3)cc21	-0.347
Cc1cc(Cl)ccc1Oc1ncc(-c2ccc(Cl)cc2)cn1	-0.0298
Cc1ccc2nc(SCC(=O)Nc3nnc(SCC(N)=O)s3)[nH]c2c1	-0.135
CCOc1ccc(S(=O)(=O)Nc2ccc(S(=O)(=O)N3CCCCC3)cc2)cc1	-0.74
O=C(Cn1c(CSc2ccccc2)nc2ccccc21)Nc1ccccc1	-0.348

SMILES	z-score
CCCCC(=O)Nc1cccc(NC(=S)NC(=O)C(C)C)c1	-0.287
O=C(c1ccc(Cl)s1)N1CCOCC1	0.143
O=C(NCc1ccco1)c1cc2ccc(O)cc2oc1=O	0.307
C/C=C/c1ccc(OCCOCCOc2cccc3cccnc23)c(OC)c1	-0.356
CC(C)(Oc1ccc(Cl)cc1)C(=O)NC1CCSC1=O (centres undefined)	-0.405
O=C(CC1SC(=NCCc2ccccc2)N(/N=C/c2cccs2)C1=O)Nc1ccc(Cl)cc1 (centres undefined)	0.658
CC(=O)CCc1c(C)nc2ccc(C(=O)O)cc2c1Cl	0.493
O=[N+]([O-])c1ccccc1N/N=C\c1ccccc1Cl	-0.0268
Cn1c(=O)[nH]c(=O)c2c1nc1n2CCCN1CCc1ccccc1	0.412
CCCCn1c(=O)c2c(O)cc(=O)oc2c2ccccc21	1.03
COc1ccc(C2SCC(=O)N2C)cc1 (centres undefined)	-0.107
Cc1ccccc1C(=O)N1CCC(C(=O)Nc2cccc(F)c2)CC1	0.161
CCc1noc(C)c1C(=O)Nc1sc(C(=O)N(C)C)c(C)c1C(=O)OC	0.608
Cc1nc2ccccc2c2oc(C(=O)N3CCc4ccccc4C3)cc12	-0.52
CSc1ccccc1NC(=O)c1ccoc1C	-0.082
CCN(CCNC(=O)c1cccc(N2CCCC2=O)c1)c1ccccc1	0.476
Cc1cc(NC(=O)c2cc(-c3ccncc3)nc3c(C)cccc23)no1	0.312
COc1ccc(S(=O)(=O)NCc2ccccn2)cc1Cl	0.175
COc1ccccc1-c1nnc(SCC(=O)Nc2ccc(S(N)(=O)=O)cc2)n1C	0.221
Cc1nnc2n(CCc3ccccc3)c(=O)c3c4c(sc3n12)CCCC4	-0.258
CC(OC(=O)c1nc(-c2ccccc2)n(-c2ccccc2)n1)C(=O)Nc1cc(Cl)cc(Cl)c1 (centres undefined)	-0.303
CN(C)c1ccc(C(=O)OCC(=O)NC2CCCCC2)cc1	-0.263
CC(NC(=O)c1ccc(Cl)cc1)c1nnc(SCc2ccc([N+](=O)[O-])cc2)n1C (centres undefined)	-0.159

SMILES	z-score
O=C(OCc1ccc2c(c1)OCO2)c1cccc(S(=O)(=O)N2CCCCC2)c1	-0.201
O=C(COC(=O)CNC(=O)c1ccccc1F)NCCC1=CCCCC1	-0.262
CCOC(=O)C1CCCN(c2nc3ccccc3nc2C(C#N)C(=O)OC(C)COC)C1 (centres undefined)	-0.408
COc1ccc(-c2nnc(SCc3cccnc3)o2)cc1	-0.339
O=C(COc1ncnc2sccc12)N1CCc2ccccc2C1	0.0441
CCCCNC(=O)COC(=O)c1cc(F)c(F)cc1Cl	0.143
COc1ccc(-c2cc(=O)oc3cc(OCC(=O)c4cccc([N+](=O)[O-])c4)ccc23)cc1	0.084
CCOC(=O)c1[nH]c2ccccc2c1NC(=O)c1nonc1C	-0.448
CCCN1Cc2cccc(C(=O)N3CCN(c4ccc(F)cc4)CC3)c2C1=O	-0.326
Cc1ccc2c(c1)c1c(n2C)-c2[nH]ncc2CC1	0.0356
CC1CCCN(c2ccc(C(=O)NCc3ccc4c(c3)OCO4)cc2[N+](=O)[O-])C1 (centres undefined)	0.508
O=S(=O)(NCC(c1ccco1)N1CCN(c2ccc(F)cc2)CC1)c1ccc2c(c1)OCCO2 (centres undefined)	-0.147
CC(=O)c1ccc(-n2nnnc2SCC(=O)NNC(=O)c2ccco2)cc1	-0.102
N/C(=N\OC(=O)Cc1cccc2ccccc12)c1ccccn1	0.135
Cn1cc(S(=O)(=O)CC(=O)Nc2ccc3c(c2)OCCO3)c2ccccc21	-0.578
CC1Cc2ccccc2N1C(=O)CCNS(=O)(=O)c1ccc2c(c1)CCC(=O)N2 (centres undefined)	-0.0721
Cc1cc(C)c(C#N)c(Nc2ccccc2)n1	-0.364
CC(C)(C)OC(=O)N1CCC(C(=O)N[C@H](Cc2ccccc2)C(=O)O)CC1	-0.194
CN(C)S(=O)(=O)c1cccc(C(=O)Nc2cccnc2)c1	-0.903
N#Cc1c(SCc2ccccc2)nc(N2CCOCC2)c2c1CCCC2	-0.279
COc1ccc2nc(NC(=O)c3ccc(-n4nc(C)cc4C)cc3)sc2c1	0.353
CCc1nnc(NS(=O)(=O)c2ccc(NC(=S)NC(=O)/C=C/c3ccc(F)cc3)cc2)s1	-0.454
Cc1cc(Nc2ccccc2)n(C(=O)c2ccc(N)cc2)n1	0.288

SMILES	z-score
COc1ccccc1-c1cc(C(F)(F)F)nc(N2CCOCC2)n1	0.856
Cn1c(=O)c2c(ncn2CC(=O)Nc2nnc(Cc3ccccc3)s2)n(C)c1=O	0.201
O=C(CNC1=NCCC1)c1ccc2c(c1)OCCO2	-0.257
C(#Cc1ccccc1)C[N+]1(CC#Cc2cccc3ccccc23)CCCC1	-0.149
Cc1cc(N2CCCC2)nc(SCC(=O)c2ccccc2)n1	0.0585
Cc1ccc(NC(=O)CCN2CCN(C/C=C/c3ccccc3)CC2)cc1	0.316
C/C(=C\C(=O)c1ccc(Cl)cc1)Nc1ccc(Br)cc1	-0.278
CC(C)(C)c1ccc(OCc2ccc(C(=O)N/N=C3\CC4CC=CC34)cc2)cc1 (centres undefined)	-0.0236
O=C(COc1ccc2c(c1)CCC2)N1CCN(c2cccc(C(F)(F)F)c2)CC1	-0.0515
CCN(CC)CC(=O)NC12CC3CC(CC(C3)C1)C2	2.42
O=C(Nc1nc(-c2ccc(Cl)cc2Cl)cs1)C1CCCO1 (centres undefined)	-0.0446
CC(=O)Nc1cccc(Oc2cc(C#N)c(C#N)cc2N2CCCCCC2)c1	2.07
CCc1nnc(NC(=O)Cn2c(=O)oc3ccccc32)s1	0.749
Cc1cc(/C=C(\C#N)C(=O)NCc2cccs2)c(C)n1-c1ccccc1F	-0.0698
Cc1ccc(C)c(N2CCN(c3nnnn3-c3ccccc3)CC2)c1	-0.403
CC1CC(C)(C)N(C(=O)NC2CCCCC2)c2ccccc21 (centres undefined)	-1.44
Cc1cc(NC(=O)CN2C(=O)NC(Cc3ccccc3)C2=O)no1 (centres undefined)	-0.793
COc1ccc(C(CC(=O)O)NC(=O)COc2ccccc2)cc1OC (centres undefined)	0.951
C1=C(CCNc2nnnn2-c2ccccc2)CCCC1	-0.26
CCOC(=O)c1ccc(NC(=S)Nc2cccc(C)n2)cc1	-0.176
CCC(C)C(=O)Nc1nc(C)c(-c2csc(Nc3ccccc3OC)n2)s1 (centres undefined)	-0.407
Nc1ccccc1C(=O)N/N=C1\C2CN3CCN(C2)CC1(c1ccccc1)C3	-0.0799
